PubChem BioAssay AID1347417 (National Center for Advancing Translational Sciences (NCATS), 2020)
Hit rate of the full screen: of about 120,000 compounds, about 5,300 (4.4%) were called active. Inconclusive means that the source gave no clear call. Such entries were picked first, then a sample of the others. Calls follow the shape of the dose curve; as a rule, active = well fitted inhibition curve with a large enough effect; inconclusive = small, poorly fitted or top-dose-only effect; inactive = no such curve, though single readings can be large or run the other way. A potency beside an inconclusive call is a rough fit, not a confirmed value.
Potency is read from the fitted curve at half-maximal effect; tags tell the direction and shape of the fitted curve.

Assay: qHTS Primary assay for Inhibitors of Plasmodium falciparum Dd2 growth in vitro; also: nearly all actives have a fitted effect of over 65% in size;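 as to activity, negative = inhibition: plate controls were DMSO vehicle for no effect and reference drug for full effect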
Settings: P. falciparum Dd2 growth, SYBR Green, 72 h; activity, negative = inhibition: at 28.9 µM (top of the series) unless noted; series mostly up to 28.9 µM
Procedure, shortened: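 Readout: SYBR Green fluorescence, 485 nm excitation, 535 nm emission, after ~16 h lysis at 37C. Before that, Dd2-infected red cells (2.5% hematocrit) grew 72 h with compound, 29 uM top final concentration.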
In the case of `Cc1noc2c(N3CCNC(=O)C3)cc(-c3cccc(C(F)(F)F)c3)nc12`, the Potency is reported as inconclusive: 12.6 µM [inhibitor, partial curve, poor fit].
For `Cc1nc(-c2cccs2)cc([C@H]2CN3CC[C@H]2C[C@@H]3CO)n1`, the Potency was active: 11.2 µM.
In the case of `COc1ccc(CN(C)C2CCCc3ccccc32)cc1` (centres undefined), the Potency is reported as inconclusive: 11.2 µM [inhibitor, single point].
For `COc1ccc(NC(=O)N2CCOc3ccc(CN4CCc5ccccc5C4)cc3C2)cc1`, the Potency was inconclusive: 1.78 µM [inhibitor, full curve].
For `CC(C)CN[C@H]1[C@H](O)[C@H](O)C[C@@H]1c1ccccc1`, the Potency was inconclusive: 7.08 µM [inhibitor, single point].
With `O=C(Cc1cn2ccsc2n1)NC1CC(c2nnc(CO)n2C2CC2)C1` (centres undefined) the Potency was inconclusive: 3.98 µM [inhibitor, single point].
For `Cc1ccccc1CN1C(=O)c2ccccc2S(=O)c2ccc(C(=O)NCc3ccc4c(c3)OCO4)cc21` (centres undefined), the Potency was inconclusive: 8.91 µM [inhibitor, single point].
In the case of `CCCS(=O)(=O)N1CCCC1c1noc(CCC(=O)N2CCN(C)CC2)n1` (centres undefined), the “activity, negative = inhibition” value is reported as inactive: -21.7%.
For `CCOc1cc(=O)n2c(c1C(=O)NCCc1ccc(OC)c(OC)c1)CCCC2`, the “activity, negative = inhibition” value was inactive: 66.4%.
In the case of `COc1ccc(Cl)cc1C(=O)N1CCCN(c2cc(-c3ccccc3)[nH]n2)CC1`, the Potency is reported as inconclusive: 3.98 µM [inhibitor, single point].
With `COc1ccc(C(=O)N[C@@H]2CCC[C@@H]2C(=O)NCc2ccc(C)o2)cn1` the Potency was inconclusive: 1.12 µM [inhibitor, full curve].
In the case of `Cc1ccccc1CNC(=O)c1ccc(CN2CC(=O)N3CCCCC3C2=O)cc1` (centres undefined), the Potency is reported as inconclusive: 8.91 µM [inhibitor, partial curve, poor fit].
With `COc1ccc(CNC(=O)C[C@@H]2C[C@H]3O[C@H](CNCc4ccccc4Cl)[C@@H](O)[C@H]3O2)cc1` the Potency was inconclusive: 10 µM [inhibitor, partial curve, poor fit].
For `O=C(C1CCCC1)N1CC2(CCN(Cc3c[nH]c4ccccc34)CC2)Cc2ccccc21`, the Potency was active: 4.47 µM.
With `Cc1c(C(=O)NCc2ccc(F)cc2)sc2nc(-c3ccc(F)cc3)cn12` the Potency was inconclusive: 20 µM [inhibitor, single point].
With `CC(=O)Nc1c(C)nn(-c2ccccc2)c1N1CCC(C(=O)Nc2cccc(C(F)(F)F)c2)CC1` the Potency was inconclusive: 17.8 µM [inhibitor, single point].
With `c1ccc(-c2nc(CC3CCNC3)no2)cc1` (centres undefined) the Potency was inconclusive: 8.91 µM [inhibitor, partial curve, poor fit].
With `FC(F)(F)c1ccc(CN2CCCC3(CC(c4cccnc4)=NO3)C2)cc1` (centres undefined) the Potency was inconclusive: 17.8 µM [inhibitor, single point].
For `CCOC(=O)Cn1c(=O)n(CC2CCCO2)c2nc(-c3ccc(CC)cc3)nc(C(N)=O)c21` (centres undefined), the Potency was inconclusive: 10 µM [inhibitor, single point].
With `COc1cccc(CNC2(Cc3cc(COc4ccccc4)on3)COC2)c1` the Potency was inconclusive: 15.8 µM [inhibitor, single point].
For `Cc1cc(CN(C)C(=O)CC(c2cccc(O)c2)c2ccccc2Cl)n[nH]1` (centres undefined), the “activity, negative = inhibition” value was inactive: -11.8%.
In the case of `COc1cc(OC)c(-c2c(-c3ccccc3)ncn2CCF)cc1OC`, the Potency is reported as active: 10 µM.
With `Cc1cncc(C(=O)N[C@@H]2CN(S(C)(=O)=O)C[C@H]2CN(C)C)c1` the “activity, negative = inhibition” value was inactive: 32.1%.
For `CC(C)n1ccnc1CN1CCCC12CCN(c1ccc(C(F)(F)F)cn1)CC2`, the Potency was active: 12.6 µM.
With `COc1cc2c(=O)c(C(=O)c3ccc(C)c(C)c3)cn(Cc3ccccc3F)c2cc1OC` the Potency was inconclusive: 11.2 µM [inhibitor, single point].
With `COc1nc2nc(CCc3ccccc3)n(C)c2cc1-c1cccc(NC(C)=O)c1` the Potency was inconclusive: 3.98 µM [inhibitor, full curve, poor fit].
For `COc1cc2c(cc1OC)C(CNC(=O)C1CC1)N(C(=O)Nc1ccccc1)CC2` (centres undefined), the Potency was inconclusive: 1 µM [inhibitor, full curve, poor fit].
With `CCOC(=O)c1c(C)[nH]c(C)c1S(=O)(=O)N(C)CC(=O)Nc1cc(Cl)ccc1C` the Potency was inconclusive: 17.8 µM [inhibitor, single point].
With `CCOC(=O)c1ccc(N2C(=O)c3[nH]nc(-c4ccc(C)cc4)c3C2c2ccc(O)c(OCC)c2)cc1` (centres undefined) the Potency was active: 7.08 µM.
For `CC(C)NCC1(COc2ccc(C(F)(F)F)cn2)C[C@@H](O)[C@@H](O)C1` (some centres undefined), the Potency was inconclusive: 11.2 µM [inhibitor, partial curve, poor fit].
For `Cc1cccc(OCCSc2nc3ccccc3n2CC(=O)N2CCOCC2)c1`, the “activity, negative = inhibition” value was inactive: -6.67%.
In the case of `O=C(Nc1cccnc1)N[C@@H]1C[C@H](CO)[C@@H](O)[C@H]1O`, the “activity, negative = inhibition” value is reported as inactive: 15.7% [at 44.1 µM].
With `COc1ccccc1N1CCCc2ncc(C(=O)Nc3ccc4[nH]ccc4c3)cc21` the Potency was inconclusive: 25.1 µM [inhibitor, partial curve, poor fit].
For `NC(=O)c1cc[nH]c1C1CCCN(C2CCN(CCc3ccccc3)CC2)C1` (centres undefined), the Potency was inconclusive: 11.2 µM [inhibitor, single point].
For `COCCNC(=O)c1ccc2c(=O)n(CCc3ccccc3)c(SCC(=O)CC(=O)OC)nc2c1`, the Potency was inconclusive: 11.2 µM [inhibitor, partial curve, poor fit].
For `CC1C=CC(C)N1c1ncnc2c1CN(C1CCNCC1)C(=O)CN2C` (centres undefined), the Potency was inconclusive: 0.631 µM [inhibitor, full curve, poor fit].
In the case of `Cc1ccc(NC(=O)N2CC(C(=O)N(C)C)C3(CCOCC3)C2)cc1` (centres undefined), the “activity, negative = inhibition” value is reported as inactive: -18%.
In the case of `COc1ccc(Cn2c(C3CCN(C(=O)c4ccc(C)cc4C)CC3)n[nH]c2=O)cc1`, the Potency is reported as inconclusive: 17.8 µM [inhibitor, partial curve, poor fit].
For `CCNC(=O)NC[C@H]1C[C@@H]2CCN1C[C@@H]2c1cc(-c2ccccc2)nn1C`, the Potency was inconclusive: 7.94 µM [inhibitor, partial curve, poor fit].
For `C=CCNC(=O)CC1COc2ccc(C(=O)NCCOC)cc2N1C` (centres undefined), the “activity, negative = inhibition” value was inactive: -2.42%.
For `CN(C(=O)Cc1ccc(F)cc1)C1CCc2ccccc21` (centres undefined), the Potency was inconclusive: 14.1 µM [inhibitor, single point].
In the case of `CN(Cc1ccc(-c2ccccc2)cc1)Cc1nccs1`, the Potency is reported as inconclusive: 11.2 µM [inhibitor, single point].
For `CC1=C(C(=O)OCc2ccc(C)cc2)C(c2ccccc2F)CC(=O)N1` (centres undefined), the Potency was inconclusive: 7.94 µM [inhibitor, partial curve, poor fit].
For `COc1ccccc1NC(=O)Nc1cccc(-c2ccc(N3CCOCC3)nn2)c1`, the “outcome” value was “inactive”.
For `CCOC(=O)c1c(C)n(-c2ccccc2)c2ccc(OC(=O)c3ccccc3NC(=O)C(C)C)cc12`, the Potency was inconclusive: 17.8 µM [inhibitor, single point].
In the case of `O=C(Nc1ccc(-c2nnc3n2CCCC3)cc1)c1ccc(F)c(F)c1`, the Potency is reported as inconclusive: 3.98 µM [inhibitor, single point].
For `Cn1cc(CNS(=O)(=O)c2cccc(C(=O)NCC3CCOC3)c2)cn1` (centres undefined), the “activity, negative = inhibition” value was inactive: 3.21%.
For `CC(C)CN1CCC(N2CC(Oc3cccc(C(=O)N4CCCC4)c3)C2)CC1`, the Potency was inconclusive: 20 µM [inhibitor, single point].
With `O=C1NC2(CCN(Cc3ccccc3)CC2)COc2ccccc21` the Potency was inconclusive: 6.31 µM [inhibitor, partial curve].
In the case of `O=C(c1ccc2cc[nH]c2c1)N1CCN(C(=O)c2nnn3c2COC(c2ccc(Cl)cc2)C3)CC1` (centres undefined), the “activity, negative = inhibition” value is reported as inactive: -19.7%.
With `CCc1ccc(NC(=O)CSc2nc3ccccc3nc2Cc2ccc(C)cc2)cc1` the “activity, negative = inhibition” value was inactive: 8.14%.
In the case of `COc1ccc(C(=O)CSc2nc(C)cc(C)c2C(=O)Nc2ccccc2C)cc1`, the Potency is reported as inconclusive: 15.8 µM [inhibitor, single point].
In the case of `CN(C)C[C@@H]1CN(S(C)(=O)=O)C[C@H]1NC(=O)CC1=CCCCC1`, the “activity, negative = inhibition” value is reported as inactive: -15.9%.
For `O=C([C@@H]1C[C@H](Oc2ccccc2)CN1C(=O)c1cc2ccccc2[nH]1)N1CCCC1`, the Potency was inconclusive: 0.631 µM [inhibitor, full curve].
With `Cc1nnc(N2C(=O)c3oc4ccccc4c(=O)c3C2c2ccc(C(C)(C)C)cc2)s1` (centres undefined) the “outcome” value was “inactive”.
For `C[C@H]1[C@@H]2[C@@H](O)C([C@H](C)C(=O)N(C)CCC#N)CC[C@@]2(C)CC[C@@H]1NC(=O)c1ccncc1` (some centres undefined), the “activity, negative = inhibition” value was inactive: -11.9% [at 44.1 µM].
In the case of `CC(C)Cc1ccc(S(=O)(=O)N2CCC(c3ccncc3)CC2)cc1`, the Potency is reported as inconclusive: 12.6 µM [inhibitor, single point].
For `O=c1[nH]c(C2CCN(Cc3ccc(C(F)(F)F)cc3)CC2)nn1Cc1ccccc1`, the “outcome” value was “inactive”.
For `COc1cc2c(cc1OC1CCCC1)NC(=O)C21CCN(Cc2cccnc2)CC1`, the Potency was inconclusive: 2.51 µM [inhibitor, full curve, poor fit].
For `COc1ccc(-c2nc3cc(C(C)C)ccc3o2)cc1NC(=O)c1ccccc1[N+](=O)[O-]`, the Potency was inconclusive: 10 µM [inhibitor, single point].
With `CC1=C[C@@H](CNC(C)C)[C@H](C(C)C)C[C@H]1Cc1nnc(C(C)(C)C)o1` the Potency was inconclusive: 0.112 µM [inhibitor, full curve, poor fit].
With `O=C1c2ccccc2OCC2(CCN([S+](=O)([O-])c3cccc(C(F)(F)F)c3)C2)N1[S+](=O)([O-])c1cccc(C(F)(F)F)c1` (centres undefined) the “activity, negative = inhibition” value was inactive: -18.8%.
In the case of `Cc1ccc2oc([C@H]3CCN(Cc4ccccn4)C3)nc2c1`, the Potency is reported as inconclusive: 31.6 µM [inhibitor, single point].
With `COc1ccc(-c2noc(N(c3ccc(F)c(Cl)c3)c3nc(-c4ccc(OC)c(OC)c4)no3)n2)cc1OC` the Potency was inconclusive: 0.891 µM [inhibitor, partial curve, poor fit].
